# Experimental data as given in PubChem BioAssay AID504332 (National Center for Advancing Translational Sciences (NCATS), 2011).
# In all, about 350,000 compounds went through this assay and about 31,000 (8.9%) were called active. Inconclusive results, whose numbers are uncertain, are shown with a selection of clear calls. Calls come from the whole dose curve; as a rule, active = well fitted inhibition curve with a large enough effect; inconclusive = small, poorly fitted or top-dose-only effect; inactive = no such curve, though single readings can be large or run the other way. Potencies beside an inconclusive call are fits to weak or partial responses and may not hold up.
# Target: Histone-lysine N-methyltransferase EHMT2 (Homo sapiens) (UniProt Q96KQ7)
# Sequence of UniProt Q96KQ7 (Q96KQ7 whole entry, looked up): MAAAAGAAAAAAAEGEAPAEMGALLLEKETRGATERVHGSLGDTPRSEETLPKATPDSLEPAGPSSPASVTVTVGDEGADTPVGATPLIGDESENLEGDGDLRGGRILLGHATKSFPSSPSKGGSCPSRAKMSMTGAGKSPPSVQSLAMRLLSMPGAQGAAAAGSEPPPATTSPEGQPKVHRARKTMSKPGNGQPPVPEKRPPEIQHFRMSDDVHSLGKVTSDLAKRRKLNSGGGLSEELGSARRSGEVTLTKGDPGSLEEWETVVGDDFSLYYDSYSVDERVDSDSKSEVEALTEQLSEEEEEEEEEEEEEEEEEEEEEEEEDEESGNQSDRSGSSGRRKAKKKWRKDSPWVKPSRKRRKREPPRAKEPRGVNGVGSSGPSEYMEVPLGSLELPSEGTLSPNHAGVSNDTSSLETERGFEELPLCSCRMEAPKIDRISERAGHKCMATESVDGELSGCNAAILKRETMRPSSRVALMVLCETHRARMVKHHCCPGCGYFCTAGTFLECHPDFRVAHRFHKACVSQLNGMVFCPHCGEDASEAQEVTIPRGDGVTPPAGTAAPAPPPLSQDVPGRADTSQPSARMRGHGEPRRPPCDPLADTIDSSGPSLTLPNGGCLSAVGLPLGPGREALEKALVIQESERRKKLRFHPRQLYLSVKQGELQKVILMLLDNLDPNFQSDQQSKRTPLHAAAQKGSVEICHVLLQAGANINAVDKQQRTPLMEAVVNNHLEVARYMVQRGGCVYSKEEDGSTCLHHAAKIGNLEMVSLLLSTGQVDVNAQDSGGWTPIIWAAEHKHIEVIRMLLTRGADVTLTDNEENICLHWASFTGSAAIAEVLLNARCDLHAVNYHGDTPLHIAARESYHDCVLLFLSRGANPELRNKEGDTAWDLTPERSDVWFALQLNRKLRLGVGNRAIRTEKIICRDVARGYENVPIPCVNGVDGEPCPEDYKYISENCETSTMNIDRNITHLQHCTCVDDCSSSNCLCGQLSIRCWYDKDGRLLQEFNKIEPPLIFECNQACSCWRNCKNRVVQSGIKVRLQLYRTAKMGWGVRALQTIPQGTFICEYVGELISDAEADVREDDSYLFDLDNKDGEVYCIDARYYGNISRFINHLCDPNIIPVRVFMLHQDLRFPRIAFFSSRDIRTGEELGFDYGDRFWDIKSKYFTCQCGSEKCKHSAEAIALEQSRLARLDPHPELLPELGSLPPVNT
# Assay: qHTS Assay for Inhibitors of Histone Lysine Methyltransferase G9a; note: nearly all actives have a fitted effect of over 75% in size
# Details: G9a H3K9 monomethylation, AlphaScreen, 2 h; activity, negative = inhibition: at 59 µM (top of the series) unless noted
# How it was run: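 Enzyme 20 nM + cpd, 15 min RT; add b-H3K9 pep 500 nM / SAM 20 uM; 2 h RT; anti-H3K9me1 Ab 0.5 ug/mL + SA donor / anti-rabbit acceptor beads 20 ug/mL each, 10 min; AlphaScreen read.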
# % is set by controls: 0 for no effect and ±100 for the full control effect; potency is the fitted concentration of half-maximal effect; tags give direction and shape of the fitted curve.
SMILES,Potency,"activity, negative = inhibition"
COc1cc(/C=C/C(=O)c2c(O)cc(C)oc2=O)cc(OC)c1O,active: 44.7 µM,
Cc1[nH]c2ccccc2c1SCc1nnc(SCc2ccc(Cl)cc2)n1C,"inconclusive: 25.1 µM [inhibitor, full curve, poor fit]",
Cc1ccc(S(=O)(=O)Nc2nc3ccccc3nc2NCc2ccco2)cc1,,inconclusive: -82.7% [inhibitor]
Cc1ccc(NC(=O)CSc2nnc(CNC(=O)c3ccco3)o2)cc1,"inconclusive: 89.1 µM [inhibitor, partial curve, poor fit]",
COc1ccc(OCCOC(=O)CNC(=O)c2cccc(C)c2)cc1,active: 50.1 µM,
CCNC(=O)N1c2ccc(OCC)cc2C(C)=CC1(C)C,active: 44.7 µM,
COCCSc1nnc(NC(=O)CSCc2ccccc2)s1,active: 14.1 µM,
C=CCc1ccccc1OCC(O)CN1CCN(c2ccccc2)CC1 (stereo unspecified),"inconclusive: 39.8 µM [inhibitor, partial curve, poor fit]",
Cc1ccc(C2NC(=O)c3ccccc3N2)s1 (stereo unspecified),"inconclusive: 2.82 µM [inhibitor, partial curve, poor fit]",
O=c1cnc2cnc(N3CCOCC3)nc2n1CCc1ccccc1,,inactive: 12.1% [at 0.501 µM]
Cc1oc2c(c1C(=O)NC(Cc1c[nH]c3ccccc13)C(=O)O)CCCC2 (stereo unspecified),"inconclusive: 89.1 µM [inhibitor, single point]",
Cn1c(SCC(O)c2ccccc2)nnc1-c1ccc2ccccc2c1 (stereo unspecified),"inconclusive: 56.2 µM [inhibitor, partial curve, poor fit]",
COC(=O)c1ccc(NC(=O)CCc2c(C)nc3c(c2C)c(=O)n(C)c(=O)n3C)cc1,inactive,
COc1cc(CNn2cn[nH]c2=S)cc(Cl)c1OCc1ccc(F)cc1,active: 5.62 µM,
Cc1ccc2[nH]c3c(c2c1)CN(C(=O)CN1CCN(c2ccccc2)CC1)CC3,"inconclusive: 89.1 µM [inhibitor, single point]",
CCc1c(C#N)c(SCc2c(C)noc2C)nc2c1C(=O)CC(C)(C)C2,"inconclusive: 79.4 µM [inhibitor, single point]",
CCC(C)CCN1C(Nc2ccccc2)=NC[C@@H]1C (stereo partly specified),"inconclusive: 100 µM [inhibitor, partial curve, poor fit]",
CC1CCN(C(c2ccc(N(C)C)cc2)c2nnnn2C(C)(C)C)CC1 (stereo unspecified),"inconclusive: 3.16 µM [inhibitor, single point]",
COc1ccc2nc(SCC(=O)N3CCNC3=O)[nH]c2c1,inactive,
S=C(NCCc1ccccc1)NCc1cccc(Cl)c1,active: 8.91 µM,
CCOC(=O)C1C(=O)CC(C)(O)C(C(=O)OCC)C1c1ccco1 (stereo unspecified),,inactive: -34.2% [at 12.7 µM]
CCN(CC(=O)Nc1ccc(OC)cc1)CC(=O)Nc1ccc2c(c1)OCO2,"inconclusive: 39.8 µM [inhibitor, single point]",
CC1(C)C2CCC(C2)C1(C)NC(=O)CN1CCOCC1 (stereo unspecified),active: 10 µM,
COC(=O)CNC(=O)C(C)(C)Oc1ccc(Cl)cc1,inactive,

SMILES,Potency,"activity, negative = inhibition"
Fc1ccc(Cl)cc1/C=N/n1cnnc1SCc1ccccc1,inactive,
COc1cccc(N2CC34C=CC(O3)C(C(=O)O)C4C2=O)c1 (stereo unspecified),"inconclusive: 56.2 µM [inhibitor, partial curve, poor fit]",
CCC(C)NC(=O)c1ccc2c(SCC(=O)O)c3c(nc2c1)CCCC3 (stereo unspecified),"inconclusive: 89.1 µM [inhibitor, single point]",
Brc1ccc(CN2CCN(c3ccccc3)CC2)o1,"inconclusive: 28.2 µM [inhibitor, single point]",
O=[N+]([O-])c1ccccc1CN1CCN(c2ncccn2)CC1,"inconclusive: 39.8 µM [inhibitor, single point]",
CC1CC(C)CN(CCCNC(=O)CN2C(=O)CSc3ccc(S(=O)(=O)N4CCCCC4)cc32)C1 (stereo unspecified),inactive,
COc1ccc2nc(NC(=O)c3cc(C)oc3C)sc2c1,"inconclusive: 31.6 µM [inhibitor, single point]",
CC(=O)Nc1nc(N2C(=O)c3ccccc3C2=O)n(-c2ccccc2)n1,"inconclusive: 7.08 µM [inhibitor, partial curve, poor fit]",
CCc1nnc(NC(=O)CCC(=O)N2CCC(Cc3ccccc3)CC2)s1,inactive,
CCCCc1nc2sc3c(SCCN(C)C)ncnc3c2c2c1CCC2,"inconclusive: 15.8 µM [inhibitor, partial curve, poor fit]",
Cc1ccccc1-c1nc(CS(=O)(=O)CC(=O)NCCCN2CCCC2=O)c(C)o1,"inconclusive: 89.1 µM [inhibitor, single point]",
CCOC(=O)c1c(C)oc2nc(C)nc(NCc3cccc(OC)c3)c12,inactive,
C=CCSC1=C(C#N)C(c2ccccc2OCC)CC(=O)N1 (stereo unspecified),"inconclusive: 79.4 µM [inhibitor, single point]",
COc1ccc(CCN2CC3=C(C2=O)C(c2ccccc2)NC(=O)N3C)cc1OC (stereo unspecified),"inconclusive: 6.31 µM [inhibitor, partial curve, poor fit]",
CCCCN(CC)C(=O)Cn1nc(C)c2c(C)n(-c3ccccc3)nc2c1=O,inactive,
COc1cc2cc(C#N)c(SCC(=O)Nc3cc(C)on3)nc2cc1OC,"inconclusive: 39.8 µM [inhibitor, single point]",
Fc1cccc(/C=N/n2c(C3CCCCC3)n[nH]c2=S)c1,"inconclusive: 0.316 µM [inhibitor, full curve, poor fit]",
COc1ccc(Cl)cc1C(=O)NC(=S)Nc1cc(-c2nc3ccccc3[nH]2)ccc1C,"inconclusive: 28.2 µM [inhibitor, single point]",
N#CC1=C(S)N(c2ccccc2)C(c2ccc(-c3ccc(Cl)c(Cl)c3)o2)NC1=O (stereo unspecified),,inconclusive: -70.2% [inhibitor]
CCOCN(C(=O)CSc1nc2ccccc2[nH]1)c1c(C)cccc1CC,inactive,
CCn1c(=O)cc(SCC(=O)N2CCN(c3cc(C)ccc3C)CC2)c2ccccc21,"inconclusive: 35.5 µM [inhibitor, partial curve, poor fit]",
Nc1c(C(=O)Nc2ccc(F)cc2)sc2nc(-c3ccco3)ccc12,active: 39.8 µM,
C=CCn1c(SCC(N)=O)nc2scc(-c3ccc(C)o3)c2c1=O,"inconclusive: 79.4 µM [inhibitor, single point]",
COc1ccc(S(=O)(=O)/N=C2/C=CC(=O)C(C)=C2C)cc1,,inconclusive: -94.1% [inhibitor]

SMILES,Potency,"activity, negative = inhibition"
COc1ccc(/C=N/N2CCN(C3c4ccccc4-c4ccccc43)CC2)cc1O,"inconclusive: 8.91 µM [inhibitor, partial curve, poor fit]",
CC(=O)Nc1ccc(-c2csc(NCc3ccccc3)n2)cc1,active: 35.5 µM,
NS(=O)(=O)c1cc(Cl)c(NC(=O)COC(=O)c2ccccn2)c(Cl)c1,active: 3.16 µM,
O=C(COc1ccc2cc(-c3ccccc3)c(=O)oc2c1)NCC1CCC(C(=O)O)CC1 (stereo unspecified),"inconclusive: 6.31 µM [inhibitor, partial curve, poor fit]",
COC(=O)c1[nH]c2cc(OC)ccc2c1NC(=O)CCN1CCN(c2cccc(C)c2C)CC1,"inconclusive: 79.4 µM [inhibitor, single point]",
COc1ccc(C(C)=O)cc1COC(=O)c1ccc(C)c(S(=O)(=O)N2CCOCC2)c1,inactive,
COc1cc(/C=N/NC(=O)C(Cc2c[nH]c3ccccc23)NC(=O)OCC(C)C)cc([N+](=O)[O-])c1OCc1ccccc1 (stereo unspecified),"inconclusive: 12.6 µM [inhibitor, partial curve, poor fit]",
O=C1Nc2ccccc2O/C1=C\c1c(F)cccc1Cl,"inconclusive: 0.316 µM [inhibitor, partial curve, poor fit]",
CCCC(c1nnnn1Cc1cccs1)N1CCN(c2ccc(OC)cc2)CC1 (stereo unspecified),active: 17.8 µM,
O=C(Nc1cccc(F)c1)/C(=C/c1ccco1)NC(=O)c1ccco1,active: 28.2 µM,
N#CC1=C(N)OC2=C(CC/C2=C\c2ccccc2)C1c1ccccc1 (stereo unspecified),active: 44.7 µM,
Cc1nn(C(C)C(=O)NCc2cccc(F)c2)c(=O)c2c1sc1ccccc12 (stereo unspecified),"inconclusive: 39.8 µM [inhibitor, single point]",
CCOC(=O)c1c(NC(=O)Cc2ccccc2)sc2c1CCN(C)C2,"inconclusive: 31.6 µM [inhibitor, single point]",
CC(C)[C@@H]1NC(=O)c2cc([N+](=O)[O-])cc(F)c2NCCC[C@@H](C(N)=O)NC(=O)[C@H](CO)NC1=O,active: 39.8 µM,
CCOc1ccccc1CNC(=O)c1cnc2sc(N3CCC(C)CC3)nn2c1=O,inactive,
Clc1ccccc1-c1nnc2sc(-c3ccncc3)nn12,"inconclusive: 89.1 µM [inhibitor, single point]",
Cc1nnc(SC(C)C(=O)N(C)C2CCCCC2)n1N (stereo unspecified),"inconclusive: 1 µM [inhibitor, single point]",
O=C(CSc1nnc(-c2ccccc2)o1)N1CCCc2ccccc21,inactive,
NC(=O)c1sc2nc(-c3cccnc3)ccc2c1N,active: 10 µM,
O=C(CSc1nc2cc([N+](=O)[O-])ccc2n1-c1ccc(F)cc1)NC1CCS(=O)(=O)C1 (stereo unspecified),"inconclusive: 17.8 µM [inhibitor, single point]",
Cc1ccc(Nc2nc(-c3cccnc3)cs2)cc1Cl,"inconclusive: 89.1 µM [inhibitor, single point]",
COc1ccc(C)cc1NC(=O)C(NS(=O)(=O)c1cccc2nsnc12)c1ccccc1 (stereo unspecified),inactive,
Cc1ccc(C2=NC3(CCCCC3)N=C2SCC(=O)Nc2ccc3c(c2)OCCO3)cc1,"inconclusive: 44.7 µM [inhibitor, partial curve]",
